We go through 13 molecules from article PMC4274898.

The chains behind the UniProt entries cited, without tags or fusion partners.
UniProt Q38832: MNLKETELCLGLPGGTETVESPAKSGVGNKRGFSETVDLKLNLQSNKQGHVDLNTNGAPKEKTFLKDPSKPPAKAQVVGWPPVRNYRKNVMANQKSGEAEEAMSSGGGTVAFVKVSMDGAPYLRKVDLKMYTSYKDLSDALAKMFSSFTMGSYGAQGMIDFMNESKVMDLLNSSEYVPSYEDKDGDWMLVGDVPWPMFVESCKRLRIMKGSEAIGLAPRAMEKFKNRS
UniProt Q38825: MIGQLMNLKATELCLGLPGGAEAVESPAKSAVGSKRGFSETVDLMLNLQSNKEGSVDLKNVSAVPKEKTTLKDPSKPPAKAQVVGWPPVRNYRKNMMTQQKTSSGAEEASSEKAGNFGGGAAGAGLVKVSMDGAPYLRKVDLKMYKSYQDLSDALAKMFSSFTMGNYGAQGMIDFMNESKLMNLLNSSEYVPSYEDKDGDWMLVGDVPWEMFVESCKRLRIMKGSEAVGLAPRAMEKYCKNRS
UniProt P93830: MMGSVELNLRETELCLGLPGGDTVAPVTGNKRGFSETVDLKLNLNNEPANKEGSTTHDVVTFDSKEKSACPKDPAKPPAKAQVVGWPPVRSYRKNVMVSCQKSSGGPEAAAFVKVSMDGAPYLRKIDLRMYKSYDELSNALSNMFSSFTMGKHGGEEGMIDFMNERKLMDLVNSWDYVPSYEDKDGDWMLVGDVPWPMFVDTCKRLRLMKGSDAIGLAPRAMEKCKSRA

These are yes or no findings as the source states them, for the method shown. Some binding calls cover weakened binding; strength is not graded here.

Assay in all cases: two-hybrid; S. cerevisiae AH109 co-transformed with pGBKT7-ARF (bait) and pGADT7-Aux/IAA (prey); growth on SD/-Ade-His-Leu-Trp against SD/-Leu/-Trp; at least 10 independent colonies; serial dilutions for strength
Test [1] concerns the target T1, ARF7 (Arabidopsis thaliana) (UniProt P93022).
T1 sequence: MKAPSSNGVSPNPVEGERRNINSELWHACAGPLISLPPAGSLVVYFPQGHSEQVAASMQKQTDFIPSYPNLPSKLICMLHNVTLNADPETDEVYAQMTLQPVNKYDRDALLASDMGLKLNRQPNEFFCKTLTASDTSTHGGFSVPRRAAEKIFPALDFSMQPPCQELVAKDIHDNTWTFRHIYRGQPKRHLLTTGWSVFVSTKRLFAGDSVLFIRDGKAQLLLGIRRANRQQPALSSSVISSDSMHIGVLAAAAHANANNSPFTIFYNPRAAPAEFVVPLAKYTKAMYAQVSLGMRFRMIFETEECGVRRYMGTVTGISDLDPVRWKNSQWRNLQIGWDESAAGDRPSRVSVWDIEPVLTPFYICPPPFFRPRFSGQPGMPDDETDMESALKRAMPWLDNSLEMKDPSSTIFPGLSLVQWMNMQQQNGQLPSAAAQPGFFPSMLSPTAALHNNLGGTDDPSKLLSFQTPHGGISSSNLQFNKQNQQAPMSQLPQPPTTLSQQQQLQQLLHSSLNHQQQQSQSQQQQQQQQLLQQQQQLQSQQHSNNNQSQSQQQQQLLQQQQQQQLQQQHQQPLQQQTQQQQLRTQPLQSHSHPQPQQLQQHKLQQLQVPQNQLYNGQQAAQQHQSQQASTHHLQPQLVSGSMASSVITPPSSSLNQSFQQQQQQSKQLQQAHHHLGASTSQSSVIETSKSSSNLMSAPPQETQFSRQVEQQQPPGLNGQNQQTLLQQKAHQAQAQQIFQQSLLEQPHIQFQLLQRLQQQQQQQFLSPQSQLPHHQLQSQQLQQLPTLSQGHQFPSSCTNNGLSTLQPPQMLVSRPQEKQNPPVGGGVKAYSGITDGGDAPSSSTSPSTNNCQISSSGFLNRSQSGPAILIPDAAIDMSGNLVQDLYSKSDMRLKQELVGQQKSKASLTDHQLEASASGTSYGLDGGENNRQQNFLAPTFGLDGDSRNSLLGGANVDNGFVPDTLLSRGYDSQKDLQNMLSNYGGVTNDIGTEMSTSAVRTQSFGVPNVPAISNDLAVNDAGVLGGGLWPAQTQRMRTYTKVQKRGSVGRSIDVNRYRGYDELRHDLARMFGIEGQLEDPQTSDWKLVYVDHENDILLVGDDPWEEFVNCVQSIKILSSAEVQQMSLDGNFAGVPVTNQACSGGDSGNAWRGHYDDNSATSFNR

Test [2] addresses T2, ARF17 (Arabidopsis thaliana) (UniProt Q84WU6).
T2 sequence: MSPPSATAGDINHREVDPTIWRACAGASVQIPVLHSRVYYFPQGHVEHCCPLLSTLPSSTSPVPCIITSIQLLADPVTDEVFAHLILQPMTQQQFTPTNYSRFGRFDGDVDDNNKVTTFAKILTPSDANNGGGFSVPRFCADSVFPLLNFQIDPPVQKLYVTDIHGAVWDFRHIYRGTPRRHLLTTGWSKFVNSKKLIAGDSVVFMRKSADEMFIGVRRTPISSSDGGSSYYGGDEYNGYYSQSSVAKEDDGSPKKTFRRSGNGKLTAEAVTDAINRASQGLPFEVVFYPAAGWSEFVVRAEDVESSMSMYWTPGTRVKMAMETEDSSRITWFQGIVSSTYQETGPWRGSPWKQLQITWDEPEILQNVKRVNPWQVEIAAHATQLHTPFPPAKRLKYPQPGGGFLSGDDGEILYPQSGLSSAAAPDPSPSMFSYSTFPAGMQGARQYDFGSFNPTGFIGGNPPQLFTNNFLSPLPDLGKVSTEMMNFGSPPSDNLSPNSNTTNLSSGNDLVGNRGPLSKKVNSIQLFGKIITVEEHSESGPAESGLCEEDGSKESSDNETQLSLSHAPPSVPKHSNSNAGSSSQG

Test [3] deals with T3, ARF10 (Arabidopsis thaliana) (UniProt Q9SKN5).
T3 sequence: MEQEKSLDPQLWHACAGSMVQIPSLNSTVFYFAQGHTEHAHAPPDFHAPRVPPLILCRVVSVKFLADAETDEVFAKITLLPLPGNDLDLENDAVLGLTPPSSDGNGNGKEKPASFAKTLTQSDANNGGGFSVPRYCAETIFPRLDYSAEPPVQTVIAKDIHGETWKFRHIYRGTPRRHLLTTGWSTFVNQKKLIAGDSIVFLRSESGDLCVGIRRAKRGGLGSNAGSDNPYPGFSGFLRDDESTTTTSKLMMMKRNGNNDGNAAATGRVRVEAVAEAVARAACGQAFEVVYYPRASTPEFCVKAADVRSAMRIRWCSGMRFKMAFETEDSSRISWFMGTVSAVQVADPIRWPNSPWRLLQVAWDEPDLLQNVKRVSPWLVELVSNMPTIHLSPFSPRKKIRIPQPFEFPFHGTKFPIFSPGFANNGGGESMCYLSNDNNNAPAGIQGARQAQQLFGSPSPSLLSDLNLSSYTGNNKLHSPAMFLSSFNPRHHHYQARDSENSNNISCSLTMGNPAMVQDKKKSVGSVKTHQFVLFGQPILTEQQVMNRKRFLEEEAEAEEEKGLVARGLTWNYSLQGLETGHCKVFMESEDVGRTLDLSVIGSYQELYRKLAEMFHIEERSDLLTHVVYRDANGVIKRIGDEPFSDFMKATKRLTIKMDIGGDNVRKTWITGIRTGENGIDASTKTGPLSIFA

Take Aux/IAA14 (from UniProt Q38832 1-228): in test [1], the binding result was “binds”.

Aux/IAA7 (from UniProt Q38825 1-243): the binding entry in test [1] is “no binding”. The same measure, in the same setting: then Aux/IAA17 (from UniProt P93830 1-229), with “binds”.

B1: Aux/IAA5 (protein, UniProt P33078 1-163)
chain: MANESNNLGLEITELRLGLPGDIVVSGESISGKKRASPEVEIDLKCEPAKKSQVVGWPPVCSYRRKNSLERTKSSYVKVSVDGAAFLRKIDLEMYKCYQDLASALQILFGCYINFDDTLKESECVPIYEDKDGDWMLAGDVPWEMFLGSCKRLRIMKRSCNRG
B1: the binding entry in test [2] and in test [3] was “binds” throughout.

B2: Aux/IAA8 (protein, UniProt Q38826 1-321)
chain: MSYRLLSVDKDELVTSPCLKERNYLGLSDCSSVDSSTIPNVVGKSNLNFKATELRLGLPESQSPERETDFGLLSPRTPDEKLLFPLLPSKDNGSATTGHKNVVSGNKRGFADTWDEFSGVKGSVRPGGGINMMLSPKVKDVSKSIQEERSHAKGGLNNAPAAKAQVVGWPPIRSYRKNTMASSTSKNTDEVDGKPGLGVLFVKVSMDGAPYLRKVDLRTYTSYQQLSSALEKMFSCFTLGQCGLHGAQGRERMSEIKLKDLLHGSEFVLTYEDKDGDWMLVGDVPWEIFTETCQKLKIMKGSDSIGLAPGAVEKSKNKERV
Regarding B2, the binding entry in test [2] is given as “binds”.

B3: Aux/IAA15 (protein, UniProt Q9C966 1-179)
chain: MSPEEYVRVWPDSGDLGGTELTLALPGTPTNASEGPKKFGNKRRFLETVDLKLGEAHENNYISSMVTNDQLVGWPPVATARKTVRRKYVKVALDGAAYLRKVDLGMYDCYGQLFTALENMFQGIITICRVTELERKGEFVATYEDKDGDLMLVGDVPWMMFVESCKRMRLMKTGDAIGL
B3: the binding result in test [2] is “binds”.

B4: Aux/IAA9 (protein, UniProt Q38827 1-338)
chain: MSPEEELQSNVSVASSSPTSNCISRNTLGGLKEHNYLGLSDCSSVGSSTLSPLAEDDKATISLKATELTLGLPGSQSPARDTELNLLSPAKLDEKPFFPLLPSKDEICSSSQKNNASGNKRGFSDTMDQFAEAKSSVYTEKNWMFPEAAATQSVTKKDVPQNIPKGQSSTTNNSSSPPAAKAQIVGWPPVRSYRKNTLATTCKNSDEVDGRPGSGALFVKVSMDGAPYLRKVDLRSYTNYGELSSALEKMFTTFTLGQCGSNGAAGKDMLSETKLKDLLNGKDYVLTYEDKDGDWMLVGDVPWEMFIDVCKKLKIMKGCDAIGLAAAPRAMEKSKMRA
Consider B4, for which, in test [2], the binding entry was “binds”.

B5: Aux/IAA13 (protein, UniProt Q38831 1-247)
chain: MITELEMGKGESELELGLGLSLGGGTAAKIGKSGGGGAWGERGRLLTAKDFPSVGSKRAADSASHAGSSPPRSSSQVVGWPPIGSHRMNSLVNNQATKSAREEEEAGKKKVKDDEPKDVTKKVNGKVQVGFIKVNMDGVAIGRKVDLNAHSSYENLAQTLEDMFFRTNPGTVGLTSQFTKPLRLLDGSSEFVLTYEDKEGDWMLVGDVPWRMFINSVKRLRVMKTSEANGLAARNQEPNERQRKQPV
On to B5, for which the binding entry was “binds” in test [2] and “no binding” in test [3].

B6: Aux/IAA34 (protein, UniProt Q9C5X0 1-185)
chain: MYCSDPPHPLHLVASDKQQKDHKLILSWKKPTMDSDPLGVFPNSPKYHPYYSQTTEFGGVIDLGLSLRTIQHEIYHSSGQRYCSNEGYRRKWGYVKVTMDGLVVGRKVCVLDHGSYSTLAHQLEDMFGMQSVSGLRLFQMESEFCLVYRDEEGLWRNAGDVPWNEFIESVERLRITRRNDAVLPF
Regarding B6, the binding entry in test [2] and in test [3] was “binds” in each case.

B7: Aux/IAA6 (protein, UniProt Q38824 1-189)
chain: MAKEGLALEITELRLGLPGDNYSEISVCGSSKKKKRVLSDMMTSSALDTENENSVVSSVEDESLPVVKSQAVGWPPVCSYRRKKNNEEASKAIGYVKVSMDGVPYMRKIDLGSSNSYINLVTVLENLFGCLGIGVAKEGKKCEYIIIYEDKDRDWMLVGDVPWQMFKESCKRLRIVKRSDATGFGLQQD
Take B7: the binding result in test [3] is listed as “no binding”.

B8: Aux/IAA32 (protein, UniProt Q8RYC6 1-191)
chain: MDPNTPADFFKGSSKFHTYYSQTKKGGGVIDLGLSLRTIQHETYLPPARMIGLDGYGELIDWSQPSYNSITQLKSEDTGHQRLAQGYYNNEGESRGKYAYVKVNLDGLVVGRKVCLVDQGAYATLALQLNDMFGMQTVSGLRLFQTESEFSLVYRDREGIWRNVGDVPWKEFVESVDRMRIARRNDALLPF
In the case of B8, the binding entry in test [3] was “binds”.

B9: Aux/IAA16 (protein, UniProt O24407 1-236)
chain: MINFEATELRLGLPGGNHGGEMAGKNNGKRGFSETVDLKLNLSSTAMDSVSKVDLENMKEKVVKPPAKAQVVGWPPVRSFRKNVMSGQKPTTGDATEGNDKTSGSSGATSSASACATVAYVKVSMDGAPYLRKIDLKLYKTYQDLSNALSKMFSSFTIGNYGPQGMKDFMNESKLIDLLNGSDYVPTYEDKDGDWMLVGDVPWEMFVDSCKRIRIMKGSEAIGLAPRALEKCKNRS
On to B9, for which the binding result in test [2] was “binds”.

B10: Aux/IAA33 (protein, UniProt Q9FKM7 1-171)
chain: MNSFEPQSQDSLQRRFHQDNSTTQQPRDTTTPFIPKPASKNHNNSNSSSGAAGRSFQGFGLNVEDDLVSSVVPPVTVVLEGRSICQRISLDKHGSYQSLASALRQMFVDGADSTDDLDLSNAIPGHLIAYEDMENDLLLAGDLTWKDFVRVAKRIRILPVKGNTRQVKRNE
As to B10, the binding entry in test [2] and in test [3] was “binds” in each case.
